The values that follow come from the supplement of paper PMC10300432.

Recombinant human monoclonal antibodies (heavy:light variable regions). ELISA EC50 on the named antigen, from 10 µg/ml down; IC50 against spike pseudovirus on HT1080-ACE2 cells, 48 h; lower = stronger. Calls: IC50 above 1,000 ng/ml = non-neutralizing; EC50 above 1,000 ng/ml = non-binder. A value given as a limit tells only on which side of the number the result lay.

Assay [1] deals with SARS-CoV-2 Omicron BA.1 spike pseudovirus. Put plainly: pseudovirus neutralization IC50; higher = weaker neutralization. As to the method:
(§1)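 Single-round luciferase reporter pseudovirus mixed with antibody dilutions and put on HT1080-ACE2 clone 14 cells for 48 h; signal relative to no-antibody wells, four-parameter fit.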

Assay [2] deals with SARS-CoV-2 Omicron BA.4/5 spike pseudovirus. The description is as above. The method, then: as §1
For assay [3], the target named is SARS-CoV-2 Wuhan-Hu-1 spike pseudovirus. Described as above. As to the method: as §1
The target in assay [4] is SARS-CoV-2 Wuhan-Hu-1 spike receptor-binding domain. Nature of the assay: ELISA binding EC50; higher = weaker binding; ELISA of recombinant human antibody on coated antigen, from 10 µg/ml in fourfold dilutions; four-parameter fit. Background: In an ELISA, binding on a coated surface is turned into a signal by an enzyme label.

B1: C5249 (protein)
chain 1: EVQLVESGGGLIQPGGSLRLSCAASGITVNANYMNWVRQAPGKGLEWISVIYSGGSTFYADSVKGRFTISRDNSKNTLYLQMNSLRADDTAVYYCARDLGPRAFDIWGQGTLVTVSS
chain 2: DIQLTQSPSFLSASVGDRVTLTCRASQGISNDLAWYQQKPGKAPKLLIYAASTLQSGVPSRFSGSGSGTEFTLTISSLQPEDFATYYCQQLNSSPPRDTFGPGTKVDIK
For the molecule B1, the “pseudovirus neutralization IC50” value was more than 1 µg/mL in assay [1], more than 1 µg/mL in assay [2] and 0.00327 µg/mL in assay [3]. In assay [4], the “ELISA binding EC50” value is 0.00412 µg/mL.

B2: C5318 (protein)
chain 1: QVQLQESGPGLVKPSQTLSLTCTVSGASISSGTYYWSWIRQHPGKGLEWIGYIYYSGSTYYNPSLKSRVTISVDTSKNQFSLKLRSVTAADTAVYYCASQDTAMVFDFWGQGTLVTVSS
chain 2: QSVLTQPPSVSGAPGQRVTISCTGSSSNIGAGYDVHWYQQLPGTAPKLLIYGNSNRPSGVPDRFSGSKSGTSASLAITGLQAEDEADYYCQSLDISLSGSGYVFGTGTKVTVL
Regarding B2, the “pseudovirus neutralization IC50” value came out at 0.21 µg/mL in assay [1], 0.2 µg/mL in assay [2] and 0.131 µg/mL in assay [3]. Further, the “ELISA binding EC50” value in assay [4] was found to be 0.0038 µg/mL.

B3: C5252 (protein)
chain 1: QVQLVQSGAEVKKPGSSVKVSCKASGGTFSSYSISWVRQAPGKGLEWMGKIIPILGVANYAQMFQGKVTITADKSTNTAYLELSSLRSDDTALYFCARETGYSGSGNLPAEYFHIWGQGTLVTVSS
chain 2: QSVLTQPPSVSGAPGQRVTISCTGTNSNIGAGYDVHWYQQLPGAAPKLLIYANNNRPSGVPDRFSGSRSGTSASLAITGLQADDEADYYCQSYDSSLTGSVFGGGTKLTVL
As for B3, the results for the “pseudovirus neutralization IC50” value in assay [1], in assay [2] and in assay [3] were 0.00636 µg/mL, 0.405 µg/mL and 0.186 µg/mL, respectively. Further, the “ELISA binding EC50” value in assay [4] was 0.00602 µg/mL.

B4: C5319 (protein)
chain 1: QVQLVESGGGVVQPGRSLRLSCEASGLTFSTYGMHWVRQAPGKGLEWVAFISGDGSEKHYGDSVKGRFTISRDNSKDILYLQVNSLRAEDTAVYFCARDLYTGGPGYWGHGTLVTVSS
chain 2: QSVLTQEPSLTVSPGGTVTLTCGSSTGSVTSDHYPYWFQQKPGQPPRTLIYDTNTKHSWTPARFSGSLLGGKAALTLSGAQPEDEADYYCLLSYNGARNWVFGGGTKLTVL
As to B4, the “pseudovirus neutralization IC50” value is more than 1 µg/mL in assay [1], more than 1 µg/mL in assay [2] and 0.694 µg/mL in assay [3]. In addition, in assay [4], the “ELISA binding EC50” value was found to be 0.00359 µg/mL.

B5: C5248 (protein)
chain 1: EVQLVESGGGLIQPGGSLRLSCAASGFTVSSNYMSWVRQAPGKGLEWVSVIYSGGSTYYADSVKGRFTISRDNSKNTLFLQMNNLTTDDTAVYYCAREAYALDVWGRGTTVTVSS
chain 2: DIQLTQSPSFLSASVGDRVTITCRASQGISNYLAWYQQKPGKAPKLLIYGASTLQSGVPSRFSGRGSGTEFTLTINSLQPEDFATYYCQLLNSHPGATFGPGTKVDIK
For B5, the “pseudovirus neutralization IC50” value in assay [1] is more than 1 µg/mL; in assay [2] it was 0.957 µg/mL; in assay [3], 0.00529 µg/mL. Also, in assay [4], the “ELISA binding EC50” value was 0.00423 µg/mL.

B6: C5320 (protein)
chain 1: QVQLQESGPGLVKPSQTLSLICNVSGDSISSGAHYWSWIRQPAGKAMEWIGRIYTSGSPSGSPNYNPSLQGRVTMSVDTSTNRFSLKVTSVTAADSAVYYCASGTFFYYFDQWGQGILVTVSS
chain 2: NFMLTQPHSVSESPGKTVTISCTRSDGSIAGNYVQWYQQRPGSAPTTVIVEDNQRPSGVPDRFSGSIDMSSNSASLIISGLKIEDEADYYCQSWQLNMVVFGGGTKLTVL
In the case of B6, the “pseudovirus neutralization IC50” value in assay [1] came out at 0.00457 µg/mL; in assay [2] it was 0.69 µg/mL; in assay [3], 0.00406 µg/mL. Further, the “ELISA binding EC50” value in assay [4] worked out at 0.00305 µg/mL.

B7: C5317 (protein)
chain 1: QLQLQESGPGLVKPSETLSLTCNVSGGFVSSGSFYWGWVRQTPARGLEWLGTVYYTGSTNYNPSLRSRLTISVDTSNDQFSLRLRSVTAADAAVYYCVRRAVTTWFDPWGQGILVTVSS
chain 2: QSALTQPISVSGSPGQSISISCTGTRNDVGGYSYVSWYQQHPGKAPKLIIFDVNNRPSGASTRFSGSKSGNTASLTISGLQAEDEADYYCSSYTSSSTVIFGGGTRLTVL
In the case of B7, the “pseudovirus neutralization IC50” value in assay [1] was more than 1 µg/mL; in assay [2], 0.891 µg/mL; in assay [3] it was more than 1 µg/mL. Besides, the “ELISA binding EC50” value in assay [4] is 0.0334 µg/mL.

B8: C5316 (protein)
chain 1: EVQLVESGGGLVQPGGSLRLSCAASGFTFSTYDMHWVRQVKGNALEWVSGTGTSGDTYYLDSVKGRFTISRDDAKNSLYLQMNNLRAGDTAIYYCVRGNAWYGGYYYGMDVWGQGTTVAVS
chain 2: DIQMTQSPSSLSASVGDRVTITCRASQTITKYINWYQQRPGRAPKLLIYAASTLHSGVPSRFSGSGSGTDFTLTISSLQPEDFATYYCQQSYSAPPWTFGQGTKVEIK
Turning to B8, the “pseudovirus neutralization IC50” value was more than 1 µg/mL in assay [1], more than 1 µg/mL in assay [2] and 0.301 µg/mL in assay [3]. Moreover, the “ELISA binding EC50” value in assay [4] came to 0.00398 µg/mL.
